# In the supplement of paper PMC3334620:
# In all, about 33,000 sequences were measured (“E-score (-0.5 to 0.5)”: median about -0.012, highest 2% from about 0.29 on). The list shows a part of the results.
# Biological target: T1, Ybr033w (UniProt P38073)
# T1 sequence: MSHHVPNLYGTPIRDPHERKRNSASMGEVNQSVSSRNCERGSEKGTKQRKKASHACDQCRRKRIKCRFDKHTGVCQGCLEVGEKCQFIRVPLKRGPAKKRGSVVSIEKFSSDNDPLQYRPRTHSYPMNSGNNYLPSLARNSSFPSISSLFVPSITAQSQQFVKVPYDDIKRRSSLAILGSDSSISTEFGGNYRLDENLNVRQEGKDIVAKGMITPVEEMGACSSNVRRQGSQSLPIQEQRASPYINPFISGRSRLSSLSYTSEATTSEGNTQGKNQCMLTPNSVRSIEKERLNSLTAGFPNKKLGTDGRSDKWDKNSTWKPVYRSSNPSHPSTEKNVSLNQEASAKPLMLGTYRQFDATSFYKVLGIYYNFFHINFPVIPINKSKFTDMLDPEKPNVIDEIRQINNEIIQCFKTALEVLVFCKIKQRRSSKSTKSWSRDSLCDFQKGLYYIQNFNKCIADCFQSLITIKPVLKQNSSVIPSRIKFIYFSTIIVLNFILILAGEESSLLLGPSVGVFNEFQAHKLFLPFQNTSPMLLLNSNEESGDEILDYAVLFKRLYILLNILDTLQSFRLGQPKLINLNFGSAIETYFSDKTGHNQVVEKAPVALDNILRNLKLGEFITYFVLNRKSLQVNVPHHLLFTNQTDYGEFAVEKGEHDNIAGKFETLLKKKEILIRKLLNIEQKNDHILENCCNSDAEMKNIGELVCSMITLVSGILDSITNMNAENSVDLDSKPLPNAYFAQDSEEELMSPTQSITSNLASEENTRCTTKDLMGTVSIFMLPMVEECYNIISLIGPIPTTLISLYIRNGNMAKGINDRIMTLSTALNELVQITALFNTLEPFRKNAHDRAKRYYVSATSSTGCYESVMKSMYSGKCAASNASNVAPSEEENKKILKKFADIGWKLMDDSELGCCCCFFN
# Test: PBM E-score (8-mer binding enrichment) (E-score (-0.5 to 0.5)); higher = stronger / more preferred TF binding; most listed sequences are background and not binding sites
# Details: protein concentration: 200 nM; construct: GST-full length
# Method: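 Universal 'all 10-mer' protein binding microarrays (Agilent AMADID 015681) probed with GST-tagged S. cerevisiae TFs (full-length or DBD) made by in vitro transcription/translation (PURExpress), about 100-200 nM. Bound TF was detected with fluorescent anti-GST. Each ungapped 8-mer (which stands for itself and its reverse complement) is scored by the PBM enrichment score (E-score), a modified Wilcoxon-Mann-Whitney statistic from -0.5 to +0.5, computed with the Universal PBM Analysis Suite. Scale: above 0.35 generally sequence-specific binding.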
row,Sequence,PBM E-score
1,TAAGTAGA,0.0752
2,ATTGAGCC,0.0581
3,CCTCCTAA,-0.217
4,CAGTTTGC,-0.0588
5,CATAAAGG,-0.0374
6,CAGTCTCC,-0.116
7,ATTGCCAC,0.0272
8,AGCGATTA,0.159
9,GAGCGTAC,-0.0539
10,GAACGTTC,-0.244
11,AGCCGAAG,0.00274
12,CCGTGGCC,-0.356
13,CAGGACCA,-0.106
14,ATCCATGA,-0.0662
15,CTGAAAAG,-0.0156
16,CTGAGCAA,-0.0556
17,CCTTGCAC,0.0587
18,AGGCTCCC,-0.316
19,CAGATCTC,-0.0913
20,ATTTAGGC,0.117
21,ACCAAAAA,0.332
22,AGCACACC,-0.206
23,AACCAAAC,-0.0349
24,GAGTGAAA,0.129
25,GACGTCTC,-0.227

row,Sequence,PBM E-score
1,ATCGTGCC,-0.018
2,ATCTAGGG,0.00893
3,TCCAACCA,0.0305
4,ATTTGGGC,-0.0275
5,GCCGAGGC,-0.055
6,GGTTAAAC,0.207
7,CGTAGTTC,-0.0769
8,GCAAACCA,0.0602
9,ATCGCTTC,0.0987
10,CTTAAGGC,-0.0414
11,AGCGAGAT,0.114
12,CGAGCACG,-0.226
13,ACCCCGGT,-0.195
14,ATCCTAGG,-0.139
15,CCTACAGA,0.00211
16,AATGGGGT,-0.1
17,CTGGAGCC,-0.285
18,GCCTCAAA,-0.0911
19,AACCAAGG,0.0409
20,AAAGGCGT,-0.181
21,CTATGCCA,-0.0681
22,GCTAAACA,0.0905
23,CTGCAGGC,-0.233
24,CAACCACG,-0.0262
25,GGTTATAA,0.0379

row,Sequence,PBM E-score
1,CGAGGATA,0.0747
2,AAGCCTAT,-0.02
3,GAAGCGAC,-0.0766
4,ATCGTGGA,-0.0367
5,CATGCCTC,-0.123
6,AGCCTTCG,-0.0874
7,CATGCTCA,0.062
8,CTAGCGGC,-0.289
9,CAGGCAGA,-0.00645
10,GTAGCTAA,-0.0141
11,AGAGGGTG,-0.238
12,AACTGGTC,-0.0196
13,AGTAGGCC,-0.0607
14,GCCGCGTA,-0.00775
15,ATGCGCAA,-0.0357
16,ATTATCCC,0.321
17,ACCAGCTA,-0.0658
18,ACTGCCCA,-0.109
19,CGTGAAAG,-0.0644
20,CCATAGGG,-0.0439
21,CTAAGTGC,-0.0998
22,CGTCATTC,0.19
23,TGCAAGCA,-0.112
24,AGTCGTCG,-0.125
25,GTCTGCGA,-0.136

row,Sequence,PBM E-score
1,AGATGATC,0.246
2,GCTCGCCA,0.00146
3,GCCGCAGA,-0.153
4,CATTTCAG,-0.0263
5,ACTGGTAA,0.162
6,GCTCCCAA,-0.155
7,AGCAGTTG,0.0122
8,AAACGTGA,0.12
9,GTCCGCCA,-0.0958
10,TTGCTAAA,0.147
11,AATGCTTG,-0.0369
12,GCAGATGC,-0.222
13,GGCCACAC,-0.201
14,TCGTTGCA,-0.0454
15,AAGCCAAT,0.102
16,CACAGGCG,-0.217
17,TAACAAAA,0.278
18,ACATTGTA,0.0832
19,CGGGCGTC,-0.192
20,CTCGATTA,0.162
21,ATATGGCC,-0.133
22,GAAAACTA,0.213
23,AGCTAAAT,0.11
24,CGGAGAGC,-0.25
25,ACGTGGCT,-0.0732

row,Sequence,PBM E-score
1,GGAAACAC,-0.0424
2,AGAGTTGC,0.0211
3,GCAAGGCA,-0.0315
4,AACACACG,0.0131
5,AACGTTGA,0.0657
6,CATACACC,-0.00987
7,TATGTTCA,0.186
8,AGGCTGCC,-0.125
9,TGCACCAA,-0.104
10,CAAGGGTA,-0.265
11,ATTGCCTC,-0.029
12,CGATTGTA,0.173
13,CGCGATCA,0.0933
14,CCTATTAC,0.0857
15,AATCCAAC,0.163
16,GCGAATGA,0.119
17,ACGTTTCT,0.0498
18,CTCTCCAC,-0.243
19,AGGTGGTA,-0.0212
20,ACGACCCT,-0.175
21,CACCTCTG,-0.0826
22,CGCTTATA,0.0551
23,CGACGAAC,-0.106
24,ACTTTCTG,0.116
25,CGTCTTTC,-0.0258

row,Sequence,PBM E-score
1,CTGTGTCA,-0.203
2,AGATGCCC,-0.0869
3,AAGCAAAG,0.0699
4,GCAGTAGA,-0.071
5,CACTCCAC,0.063
6,AGACTCCT,-0.0341
7,ACGCTTCG,-0.14
8,CGCCGGCC,-0.334
9,TCACGAAA,0.164
10,ATCTAGGC,-0.115
11,CAACCTGC,-0.27
12,ACTACCGC,-0.103
13,ACCGCGGC,-0.0548
14,CCCTTCGG,-0.154
15,AAGGCTCG,-0.126
16,TGCCTCAA,-0.0307
17,AGACTCCC,-0.34
18,AAAGTAGA,0.138
19,GATCGCTA,-0.0568
20,GCACTGGA,-0.099
21,GCCAATCC,-0.159
22,CTCAGGGA,-0.272
23,CTCGACGA,-0.165
24,CCTGCTCG,-0.401
25,ATGCGGCA,-0.0591

row,Sequence,PBM E-score
1,GTCTAATA,0.0847
2,TCGGGAAA,0.253
3,AAACGCAT,-0.0811
4,TATGATAA,0.274
5,CCATCCGA,-0.0885
6,ATTTGACA,0.148
7,ATAATCAA,0.229
8,CGGCGGAG,-0.157
9,AGAGTGCC,-0.157
10,GCAATTTA,0.307
11,CTAAGGGC,-0.121
12,CGCTCTAC,-0.144
13,ATTGCCGG,-0.0444
14,CAGCGCAC,-0.0912
15,AGGCTCGG,-0.0289
16,ACTTTACA,0.155
17,TATTGGAA,0.128
18,CCCGACTA,-0.168
19,GCAGGGGC,-0.251
20,GTCTGATA,0.0219
21,AGAAACCG,-0.125
22,AAGTTTCG,0.26
